# pIC50: −log10 of the molar value.
# Assays:
# [1] = test system: BXPC-3; assay: cells; conditions: Homo sapiens
# [2] = in vivo; conditions: Sprague-Dawley, rat, po, 6 mg/kg
# [3] = test system: HepG2; assay: cells; conditions: Homo sapiens
# [4] = in vivo; conditions: BALB/c, mouse, iv, 3 mg/kg
# [5] = target: RAC-alpha serine/threonine-protein kinase (Homo sapiens, UniProt P31749)
# [6] = target: Serine/threonine-protein kinase pim-2 (Homo sapiens, UniProt Q9P1W9)
# [7] = in vivo; conditions: BALB/c, mouse, po, 10 mg/kg
# [8] = target: High affinity nerve growth factor receptor (Homo sapiens, UniProt P04629)
# [9] = target: Mitogen-activated protein kinase 9 (Homo sapiens, UniProt P45984)
# [10] = in vitro; conditions: rhesus monkey, microsomes
# [11] = target: Aurora kinase A (Homo sapiens, UniProt O14965)
# [12] = in vivo; conditions: BALB/c, mouse, iv, 3 mg/kg; remark: listed apart in the source
# [13] = test system: NCI-H1993; assay: cells; conditions: Homo sapiens
# [14] = test system: PC-3; assay: cells; conditions: Homo sapiens
# [15] = in vivo; conditions: Sprague-Dawley, rat, iv, 3 mg/kg
# [16] = target: Epidermal growth factor receptor (Homo sapiens, UniProt P00533)
# [17] = in vitro; conditions: dog, microsomes
# [18] = in vitro; conditions: rat, microsomes
# [19] = test system: A549; assay: animal or person; conditions: Mus musculus, A549, po, 480 h, read-out: TGI
# [20] = target: Voltage-gated inwardly rectifying potassium channel KCNH2 (Homo sapiens, UniProt Q12809)
# [21] = test system: MCF7; assay: animal or person; conditions: Mus musculus, MCF7, po, 456 h, read-out: TGI
# [22] = test system: K562; assay: cells; conditions: Homo sapiens
# [23] = in vitro; conditions: dog, microsomes; remark: listed apart in the source
# [24] = target: Platelet-derived growth factor receptor beta (Homo sapiens, UniProt P09619)
# [25] = test system: MCF7; assay: animal or person; conditions: Mus musculus, MCF7, po, 456 h, read-out: TGI; remark: listed apart in the source
# [26] = in vivo; conditions: Sprague-Dawley, rat, po, 6 mg/kg; remark: listed apart in the source
# [27] = test system: SNU-5; assay: cells; conditions: Homo sapiens
# [28] = target: Mitogen-activated protein kinase 10 (Homo sapiens, UniProt P53779)
# [29] = in vitro; conditions: human, microsomes
# [30] = in vitro; conditions: human, microsomes; remark: listed apart in the source
# [31] = test system: CFPAC-1; assay: cells; conditions: Homo sapiens
# [32] = target: Serine/threonine-protein kinase B-raf (Homo sapiens, UniProt P15056)
# [33] = in vivo; conditions: BALB/c, mouse, iv, 3 mg/kg; remark: listed apart in the source
# [34] = target: Aurora kinase B (Homo sapiens, UniProt Q96GD4)
# [35] = test system: T47D; assay: cells; conditions: Homo sapiens
# [36] = target: CDK7/Cyclin H/MNAT1 (Homo sapiens, UniProt P50613)
# [37] = in vivo; conditions: Sprague-Dawley, rat, po, 6 mg/kg; remark: listed apart in the source
# [38] = in vivo; conditions: BALB/c, mouse, po, 10 mg/kg; remark: listed apart in the source
# [39] = test system: LNCaP; assay: cells; conditions: Homo sapiens
# [40] = test system: U-87 MG; assay: cells; conditions: Homo sapiens
# [41] = in vitro; conditions: rhesus monkey, microsomes; remark: listed apart in the source
# [42] = target: Proto-oncogene tyrosine-protein kinase Src (Homo sapiens, UniProt P12931)
# [43] = test system: MCF7; assay: cells; conditions: Homo sapiens
# [44] = test system: MCF7; assay type: functional, Homo sapiens; conditions: at 50 mg/kg
# [45] = target: Vascular endothelial growth factor receptor 2 (Homo sapiens, UniProt P35968)
# [46] = in vivo; conditions: BALB/c, mouse, po, 10 mg/kg; remark: listed apart in the source
# [47] = target: CDK4/Cyclin D3 (Homo sapiens, UniProt P11802)
# [48] = target: Platelet-derived growth factor receptor alpha (Homo sapiens, UniProt P16234)
# [49] = test system: COLO 205; assay: animal or person; conditions: Mus musculus, COLO 205, po, 312 h, read-out: TGI
# [50] = test system: NCI-H441; assay: cells; conditions: Homo sapiens
# [51] = target: Tyrosine-protein kinase JAK1 (Homo sapiens, UniProt P23458)
# [52] = target: CYP2D6 (Homo sapiens, UniProt P10635); assay: in vitro; conditions: microsomes
# [53] = in vitro; conditions: mouse, microsomes
# [54] = in vivo; conditions: Sprague-Dawley, rat, iv, 3 mg/kg; remark: listed apart in the source
# [55] = target: CDK6/cyclin D3 (Homo sapiens, UniProt Q00534)
# [56] = target: MAP kinase-activated protein kinase 2 (Homo sapiens, UniProt P49137)
# [57] = target: CYP2C19 (Homo sapiens, UniProt P33261); assay: in vitro; conditions: microsomes
# [58] = test system: ZR-75-1; assay: cells; conditions: Homo sapiens
# [59] = in vivo; conditions: Sprague-Dawley, rat, iv, 3 mg/kg; remark: listed apart in the source
# [60] = target: CYP1A2 (Homo sapiens, UniProt P05177); assay: in vitro; conditions: microsomes
# [61] = in vivo; conditions: BALB/c, mouse, iv, 3 mg/kg; remark: listed apart in the source
# [62] = test system: PANC-1; assay: cells; conditions: Homo sapiens
# [63] = test system: A549; assay: cells; conditions: Homo sapiens
# [64] = in vivo; conditions: Sprague-Dawley, rat, po, 6 mg/kg; remark: listed apart in the source
# [65] = test system: NCI-H1975; assay: cells; conditions: Homo sapiens
# [66] = in vivo; conditions: Sprague-Dawley, rat, iv, 3 mg/kg; remark: listed apart in the source
# [67] = in vivo; conditions: BALB/c, mouse, po, 10 mg/kg; remark: listed apart in the source
# [68] = in vitro; conditions: rat, microsomes; remark: listed apart in the source
# [69] = in vitro; conditions: mouse, microsomes; remark: listed apart in the source
# [70] = target: Mitogen-activated protein kinase 3 (Homo sapiens, UniProt P27361)
# [71] = target: Serine/threonine-protein kinase Chk1 (Homo sapiens, UniProt O14757)
# [72] = target: Mitogen-activated protein kinase 8 (Homo sapiens, UniProt P45983)
# [73] = target: RAF proto-oncogene serine/threonine-protein kinase (Homo sapiens, UniProt P04049)
# [74] = target: Tyrosine-protein kinase JAK2 (Homo sapiens, UniProt O60674)
# [75] = in vivo; conditions: Sprague-Dawley, rat, iv, 3 mg/kg; remark: listed apart in the source
# [76] = test system: MCF7; conditions: Homo sapiens
# [77] = test system: NCI-H358; assay: cells; conditions: Homo sapiens
# [78] = target: CYP2C9 (Homo sapiens, UniProt P11712); assay: in vitro; conditions: microsomes
# [79] = target: 5'-AMP-activated protein kinase catalytic subunit alpha-1 (Homo sapiens, UniProt Q13131)
# [80] = target: Serine/threonine-protein kinase Chk2 (Homo sapiens, UniProt O96017)
# [81] = target: CYP3A4 (Homo sapiens, UniProt P08684); assay: in vitro; conditions: microsomes
# [82] = test system: NCI-N87; assay: cells; conditions: Homo sapiens
# [83] = test system: U-251; assay: cells; conditions: Homo sapiens
# [84] = target: Fibroblast growth factor receptor 1 (Homo sapiens, UniProt P11362)
# [85] = test system: MCF7; assay: animal or person; conditions: Mus musculus, MCF7, po, 456 h, read-out: TGI; remark: listed apart in the source
# [86] = in vivo; conditions: BALB/c, mouse, iv, 3 mg/kg; remark: listed apart in the source
# [87] = test system: COLO 205; assay: cells; conditions: Homo sapiens
compound,measurement,setting,value
Cc1nc2c(F)cc(-c3nc(Nc4ccc5c(n4)CCN(CCN(C)C)C5)ncc3F)cc2n1C(C)C,pIC50,[1],7.44
same,AUC(0-t) at 24 h,[2],1400 ng·h/mL
same,pIC50,[3],7.58
same,Cmax at 24 h,[4],2420 ng/mL
same,pIC50,[5],< 4.52
same,pIC50,[6],6.75
same,AUC(0-t) at 24 h,[7],6850 ng·h/mL
same,pIC50,[8],6.96
same,pIC50,[9],6.52
same,microsomal CLint at 1 h,[10],92 µL/min/mg
same,pIC50,[11],< 4.52
same,Vd at 24 h,[12],4.4 L/kg
same,pIC50,[13],6.12
same,pIC50,[14],5.87
same,clearance at 24 h,[15],34.8 mL/min/kg
same,pIC50,[16],5.71
same,half-life at 1 h,[17],0.303 h
same,microsomal CLint at 1 h,[18],10 µL/min/mg
same,inhibition in vivo at 50 mg/kg,[19],94%
same,pIC50,[20],5.00
same,inhibition in vivo at 10 mg/kg,[21],79%
same,pIC50,[22],6.52
same,microsomal CLint at 1 h,[23],76 µL/min/mg
same,pIC50,[24],6.41
same,inhibition in vivo at 50 mg/kg,[25],117%
same,half-life at 24 h,[26],4.52 h
same,pIC50,[27],6.59
same,pIC50,[28],6.38
same,microsomal CLint at 1 h,[29],28 µL/min/mg
same,half-life at 1 h,[30],0.825 h
same,pIC50,[31],6.62
same,pIC50,[32],5.08
same,half-life at 24 h,[33],4.19 h
same,pIC50,[34],5.07
same,pIC50,[35],8.06
same,pIC50,[36],5.91
same,bioavailability at 24 h,[37],49%
same,half-life at 24 h,[38],4.81 h
same,pIC50,[39],7.65
same,pIC50,[40],6.68
same,half-life at 1 h,[41],0.252 h
same,pIC50,[42],5.98
same,pIC50,[43],8.15
same,T/C,[44],10%
same,pIC50,[45],5.41
same,Cmax at 24 h,[46],775 ng/mL
same,pIC50,[47],9.15
same,pIC50,[48],6.01
same,inhibition in vivo at 25 mg/kg,[49],111%
same,pIC50,[50],6.95
same,pIC50,[51],6.10
same,inhibition at […],[52],< 15%
same,half-life at 1 h,[53],1.16 h
same,Vd at 24 h,[54],10.7 L/kg
same,pIC50,[55],8.96
same,pIC50,[56],< 4.52
same,inhibition at […],[57],< 15%
same,pIC50,[58],7.67
same,half-life at 24 h,[59],3.95 h
same,inhibition at […],[60],< 15%
same,clearance at 24 h,[61],21.3 mL/min/kg
same,pIC50,[62],6.50
same,pIC50,[63],7.00
same,Cmax at 24 h,[64],128 ng/mL
same,pIC50,[65],6.49
same,AUC(0-t) at 24 h,[66],1430 ng·h/mL
same,bioavailability at 24 h,[67],87%
same,half-life at 1 h,[68],2.32 h
same,microsomal CLint at 1 h,[69],20 µL/min/mg
same,pIC50,[70],4.87
same,pIC50,[71],5.04
same,pIC50,[72],5.38
same,pIC50,[73],4.55
same,pIC50,[74],6.77
same,Cmax at 24 h,[75],600 ng/mL
same,TGI,[76],Dose-dependent effect
same,pIC50,[77],7.70
same,inhibition at […],[78],< 15%
same,pIC50,[79],6.06
same,pIC50,[80],6.01
same,inhibition at […],[81],< 15%
same,pIC50,[82],6.37
same,pIC50,[83],6.87
same,pIC50,[84],< 4.52
same,inhibition in vivo at 25 mg/kg,[85],105%
same,AUC(0-t) at 24 h,[86],2360 ng·h/mL
Cc1nc2c(F)cc(-c3nc(Nc4ccc5c(n4)CCN(CCN(C)C)C5)ncc3F)cc2n1CC1CC1,pIC50,[87],6.77
same,pIC50,[35],7.58
same,pIC50,[43],7.67
same,pIC50,[58],7.21
same,pIC50,[63],7.12
CCC(CC)n1c(C)nc2c(F)cc(-c3nc(Nc4ccc5c(n4)CCN(CCN(C)C)C5)ncc3F)cc21,pIC50,[87],7.17
same,pIC50,[35],8.08
same,pIC50,[58],7.87
same,pIC50,[63],6.75
